# Experimental data: PubChem BioAssay AID540317 (National Center for Advancing Translational Sciences (NCATS), 2011)
# Among all 390,000 compounds or so, about 2,200 (0.56%) were called active. The inconclusive results got no clear call from the source; some entries with a clear call stand among them for comparison. The call rests on the fitted dose curve; in most records, active means well fitted inhibition curve with a large enough effect; inconclusive means small, poorly fitted or top-dose-only effect; inactive means no such curve, though single readings can be large or run the other way. Where the call is inconclusive, the potency comes from a doubtful curve fit.
# Molecular target: Chromobox protein homolog 1 (Homo sapiens) (UniProt P83916)
# Chain of UniProt P83916 (P83916 whole entry, looked up): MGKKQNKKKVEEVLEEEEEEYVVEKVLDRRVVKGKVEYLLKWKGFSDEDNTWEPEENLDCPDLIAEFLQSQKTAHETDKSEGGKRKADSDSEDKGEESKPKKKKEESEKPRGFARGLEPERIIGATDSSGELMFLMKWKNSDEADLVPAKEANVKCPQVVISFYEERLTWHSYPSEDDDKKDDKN
# Experiment: HTS for Inhibitors of HP1-beta Chromodomain Interactions with Methylated Histone Tails; further: nearly all actives have a fitted effect of over 70% in size
# Settings: AlphaScreen HP1-beta / biotin-H3K9me3 peptide binding; series mostly up to 114 µM; activity change, negative = inhibition: at the top concentration
# How it was run: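 HP1-beta protein (50 nM final) preincubated 30 min at room temperature with biotinylated H3(1-18)K9me3 peptide (50 nM) in PBS pH 7.4, 0.01% Tween-20, then compound added for 30 min. AlphaScreen streptavidin donor/nickel chelate acceptor beads (10 ug/mL final), 30 min dark, luminescence read.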
# Potency means the concentration at half of the fitted maximal effect; tags describe the fitted curve by direction and shape.
Structure (SMILES),Potency,"activity change, negative = inhibition"
Cc1oc(-c2cccc(Cl)c2)nc1CN1CCCC(C(=O)N2CCN(c3ccc(F)cc3)CC2)C1 (configuration not stated),"inconclusive: 17.8 µM [inhibitor, full curve]",
CCOC(=O)N1CCc2c(sc3c2C(=O)NC(c2cc(OC)c(O)c(OC)c2)N3)C1 (configuration not stated),"inconclusive: 39.8 µM [inhibitor, partial curve]",
COc1ccc(-c2ccc(C(=S)N3CCN(C(C)=O)CC3)o2)cc1,"inconclusive: 15.8 µM [inhibitor, full curve, poor fit]",
CCOC(=O)N1CCN(C(=O)c2ccc3c(=O)n4c(nc3c2)CCCCC4)CC1,,inactive: 8.8%
O=C(Nc1cc(Oc2ccccc2)cc([N+](=O)[O-])c1)C12CC3CC(C1)CC(n1cnc(Cl)n1)(C3)C2,"inconclusive: 31.6 µM [inhibitor, partial curve]",
COc1cc(CN2CCCCCC2)cc(Br)c1O,"inconclusive: 44.7 µM [inhibitor, partial curve]",
COC(=O)c1cc(S(=O)(=O)N2CCN(C(=O)c3ccco3)CC2)cn1C,,inactive: 12.7% [at 57 µM]
O=C1c2cccc3cccc(c23)C(=O)N1CCCN1CCN(c2ccc(F)cc2)CC1,"inconclusive: 14.1 µM [inhibitor, full curve, poor fit]",
O=C(NNc1ccc(C(F)(F)F)cc1[N+](=O)[O-])c1ccc(NS(=O)(=O)c2ccc(F)cc2)cc1,"inconclusive: 50.1 µM [inhibitor, partial curve]",
Cc1nc(N2CCCCC2)sc1C(=O)c1ccc(SCCO)c([N+](=O)[O-])c1,"inconclusive: 10 µM [inhibitor, full curve]",
Cc1nc(N2CCCCC2)c2ccsc2n1,"inconclusive: 31.6 µM [inhibitor, single point]",
COc1ccc(CCNC(=O)COC(=O)c2ccccn2)cc1,"inconclusive: 7.08 µM [inhibitor, single point]",
CCCN1C(=O)/C(=C\C=C2/C=CN(CC)c3ccccc32)SC1=S,"inconclusive: 14.1 µM [inhibitor, full curve]",
CCCn1c2ccccc2c2cn[nH]c(=O)c21,,inactive: -5.13%
CCCS(=O)(=O)c1nc(S(=O)(=O)c2ccc(C)cc2)c(N2CCC(C(N)=O)CC2)s1,,inactive: 27%
COc1ccc(OC)c(CN2CCN(C(=O)c3ccco3)CC2)c1,"inconclusive: 56.2 µM [inhibitor, partial curve, poor fit]",
O=C(COc1cccc2cccnc12)N/N=C/c1cccn1-c1ccc(F)cc1,"inconclusive: 28.2 µM [inhibitor, full curve]",
COc1ccc(C2Nc3ccc(NC(=O)COC(C)=O)cc3C(=O)N2Cc2ccccc2)cc1COc1ccc(NC(C)=O)cc1 (configuration not stated),,inactive: 33.9%
CCCCN(CC)c1nc(-c2ccncc2)nc2ccccc12,"inconclusive: 28.2 µM [inhibitor, full curve, poor fit]",
CCOC(=O)C1(CC2CCCCO2)CCN(C(=O)Nc2cccc(SC)c2)CC1 (configuration not stated),"inconclusive: 44.7 µM [inhibitor, partial curve]",
O=[N+]([O-])c1cc(Cl)c(O)c2ncccc12,"inconclusive: 50.1 µM [inhibitor, partial curve]",
O=C(/C=C/c1ccc(Br)o1)Nc1nccs1,"inconclusive: 39.8 µM [inhibitor, single point]",
CC1CCCCC1NC(=S)NC(=O)c1cccs1 (configuration not stated),"inconclusive: 31.6 µM [inhibitor, full curve]",

Structure (SMILES),Potency,"activity change, negative = inhibition"
O=C(O)C1Nc2ccccc2C2C=CCC12 (configuration not stated),active: 11.2 µM,
O=[N+]([O-])c1ccc(O)c(NC(=S)Nc2ccccc2)c1,"inconclusive: 3.55 µM [inhibitor, full curve, poor fit]",
Cc1cccc(NC2CNC(=O)NC2=O)c1 (configuration not stated),,inactive: 4.65%
Cc1cccc(CNC(=O)c2ccc(Cn3c(SCc4cccc(F)c4)nc4cccnc43)cc2)c1,"inconclusive: 17.8 µM [inhibitor, full curve, poor fit]",
Cc1ccc(C(=O)Oc2ccc(Br)cc2C(=S)N2CCOCC2)cc1,"inconclusive: 35.5 µM [inhibitor, partial curve]",
NS(=O)(=O)c1ccc(CCNC(=O)Cc2ccc(S(=O)(=O)N3CCCC3)s2)cc1,"inconclusive: 70.8 µM [inhibitor, single point]",
Nc1ccc2c(O)cc(S(=O)(=O)O)cc2c1,"inconclusive: 56.2 µM [inhibitor, partial curve, poor fit]",
O=C(CN1CCN(c2ccccn2)CC1)Nc1ccc(F)cc1,"inconclusive: 25.1 µM [inhibitor, single point]",
COc1cc(CN2CCC(C(=O)N3CCC(C)CC3)CC2)cc(Br)c1O,"inconclusive: 3.98 µM [inhibitor, full curve, poor fit]",
O=C(CCN1C(=O)/C(=C/c2ccccc2Cl)SC1=S)NC1=NCCS1,"inconclusive: 35.5 µM [inhibitor, partial curve, poor fit]",
COc1ccc(-c2ccc(CCC(=O)O)n2-c2ccccc2C(F)(F)F)cc1,,inactive: 18%
O=C(NC1CCCCCC1)C(=S)N1CCOCC1,"inconclusive: 39.8 µM [inhibitor, partial curve]",
COc1ccc(NC(=O)COC(=O)C2CCCCC2)c([N+](=O)[O-])c1,"inconclusive: 56.2 µM [inhibitor, single point]",
COc1ccc(NS(=O)(=O)c2ccc(N3CCCC3)c(N)c2)cc1,"inconclusive: 50.1 µM [inhibitor, partial curve, poor fit]",
COc1ccc(NC(=O)/C(N=Nc2ccc(Cl)c(S(=O)(=O)Nc3ccc(Cl)cc3)c2)=C(\C)O)cc1,"inconclusive: 35.5 µM [inhibitor, partial curve, poor fit]",
O=C(Cc1n[nH]c(=O)c2ccccc12)N/N=C/c1cc2c(cc1Cl)OCO2,"inconclusive: 89.1 µM [inhibitor, single point]",
Cn1c(SCC(=O)c2ccccc2)nnc1C1CC1,,inactive: -11.8%
NNc1cccc(C=Cc2ccccc2)cc1=O,"inconclusive: 44.7 µM [inhibitor, partial curve, poor fit]",
COc1ccc(CN2CCN(Cc3ccco3)CC2)c(OC)c1,"inconclusive: 20 µM [inhibitor, full curve]",
COC(=O)c1ccc(OCC(O)CN2CCN(C(=O)c3ccco3)CC2)cc1 (configuration not stated),"inconclusive: 17.8 µM [inhibitor, full curve, poor fit]",
O=C(Nc1ccc(NC(=O)N2CCN(c3ccccc3O)CC2)cc1)N1CCN(c2ccccc2O)CC1,"inconclusive: 70.8 µM [inhibitor, partial curve, poor fit]",
CC(c1ccccc1)N1C(=O)/C(=C/c2ccncc2)SC1=S (configuration not stated),"inconclusive: 12.6 µM [inhibitor, full curve, poor fit]",
CCc1cccc(CC)c1NC(=O)c1ccc2c(c1)CCN2S(=O)(=O)c1ccccc1,,inactive: 7.49%

Structure (SMILES),Potency,"activity change, negative = inhibition"
CC1=C(c2ccc(C)c(C)c2)S(=O)(=O)N=C1N1CCC(C(=O)NCCc2ccco2)CC1,"inconclusive: 79.4 µM [inhibitor, single point]",
COC(=O)C1=C(C)NC(C)=C(C(=O)OC)C1c1ccc(-c2cc(Cl)ccc2Cl)o1,,inactive: 53.1%
COc1ccc(NC2CCCN(C(=O)c3csc(C(C)C)n3)C2)cc1 (configuration not stated),,inactive: 46.4%
CSc1ncccc1C(=O)OCC(=O)NCCc1ccccc1,,inactive: 37.5%
CN1CCN(/C(=N\O)c2nonc2N)CC1,"inconclusive: 35.5 µM [inhibitor, single point]",
COc1ccc(S(=O)(=O)c2cnc3ccc(OC)cc3c2N2CCC3(CC2)OCCO3)cc1,,inactive: 34.2%
COc1cc(/C=C(\C#N)C(=O)Nc2ccc(C(=O)O)cc2)ccc1OC(=O)c1cccc(F)c1,"inconclusive: 56.2 µM [inhibitor, single point]",
COc1ccc(NC(=O)c2cc(-c3ccco3)nc3ccccc23)cn1,"inconclusive: 28.2 µM [inhibitor, full curve]",
O=C(O)COc1ccc2c(c1)O/C(=C\c1ccco1)C2=O,active: 39.8 µM,
CC(C)CC(=O)Nc1nc(=S)ss1,"inconclusive: 10 µM [inhibitor, full curve]",
COc1ccccc1/C=C/C(=O)OCC(=O)NC1CCCCCCC1,,inactive: 62.3%
O=C(NC1(Cc2ccc(O)cc2)CCCCC1)c1ccccc1,,inactive: 11.3%
COc1ccc(N=Cc2ccc(-c3ccccc3)o2)cc1,"inconclusive: 39.8 µM [inhibitor, partial curve]",
Nc1nc(SCC(=O)N2CCCC2)[nH]c(=O)c1-c1ccccc1,"inconclusive: 6.31 µM [inhibitor, single point]",
CCN(CC)c1nn2c(=O)c(C(=O)NCc3cccc(C)c3)cnc2s1,"inconclusive: 89.1 µM [inhibitor, single point]",
CCc1noc(C)c1C(=O)N1CCN(S(=O)(=O)c2cccs2)CC1,,inactive: 36.9%
CNC(=O)c1cccc(NC(=O)C(C)c2ccc3cc(OC)ccc3c2)c1 (configuration not stated),,inactive: 14.1%
Cc1ccc(NC(=O)CSc2ncnc3c2sc2ccccc23)cc1C,,inactive: 19.8%
C#CCOCCOCCOCCNc1nc(N2CCN(C(=O)CCCCCCCCCCNC(=O)[C@H](CCCCN)n3cc(CCO)nn3)CC2)nc(N2CCN(C(=O)CCCCCCCCCCNC(=O)[C@H](CCCCN)n3cc(CCO)nn3)CC2)n1,"inconclusive: 50.1 µM [inhibitor, partial curve, poor fit]",
CCc1ccc(Nc2ccc(S(=O)(=O)N3CCOCC3)cc2[N+](=O)[O-])cc1,"inconclusive: 2.24 µM [inhibitor, full curve, poor fit]",
NCCc1ccc(O)c(O)c1,active: 14.1 µM,
